Out of some 48,000 compounds screened, about 120 (0.25%) were called active. Roughly 4% stayed inconclusive and do not appear here. Calls come from the whole dose curve; as a rule, active = well fitted activation curve with a large enough effect; inconclusive = small, poorly fitted or top-dose-only effect, or another doubt; inactive = no such curve, though single readings can be large or run the other way. The list shows a part of the results.
assay: Primary qHTS for Identification of Small Molecule Activators of Huntingtin-Antisense Promoter Activity; settings: HEK293 HTT-AS promoter firefly luciferase reporter, 24 h; series mostly up to 57.5 µM; activity change, positive = activation: at the top concentration; note: nearly all actives have a fitted effect of over 55% in size
Outline: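 HEK293 cells carrying firefly luciferase reporters were seeded at 2,500 per well in Opti-MEM and cultured for 24 h. They were then treated with compounds at up to 57.5 uM final for 24 h at 37 degrees C before Dual-Glo luminescence readout.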

Activity change, positive = activation, inactive:
CCOC(=O)C1=C(CN2CCCCC2)NC(=O)NC1c1cc(C)ccc1C (centres undefined) 4.61%
COc1ccccc1N1CCN(C(CNC(=O)C(=O)NCc2ccc(C)cc2)c2cccnc2)CC1 (centres undefined) -57.5%
CC(C)(C)c1ccc(OCCn2cc(C(=O)c3ccco3)c3ccccc32)cc1 -26.9%
CCc1cccc(NC(=O)C2CCCN(S(=O)(=O)c3cccs3)C2)c1 (centres undefined) -19.7%
CCCC(CCC)C(=O)Nc1cc(-c2cn3cccnc3n2)ccc1OC -11.4%
CCc1ccc(N2C(=O)CSC23C(=O)N(Cc2ccc(C)cc2)c2ccccc23)cc1 (centres undefined) -37.4%
Cc1oc(-c2cccc(Cl)c2)nc1CN1CCC(C(=O)NCCCN2CCN(c3ccc(F)cc3)CC2)CC1 -45.8%
O=C(CSc1nc2c(c(=O)[nH]1)CCC2)Nc1ccccc1C(F)(F)F -11.1%
COc1ccc(S(=O)(=O)c2c(C)c(NS(=O)(=O)c3ccccc3)cc(C)c2O)cc1 -21.7%
COc1ccc(Cn2cc(C(=O)c3ccc(C)cc3)c(=O)c3cc(OC)c(OC)cc32)cc1 -7.62%
O=C(NCN1CCOCC1)c1cnccn1 -6.21%
O=C(c1ccc2c(c1)CCCC2)N1CCN(c2nc3c(F)cccc3s2)CC1 -2.59%
COc1cc(C(c2c(C)[nH][nH]c2=O)c2c(C)[nH][nH]c2=O)ccc1OC(=O)c1cccc(C)c1 -5.8%
CCn1cc(C(=O)NCc2ccccc2)c(=O)c2cc(S(=O)(=O)N3CCc4ccccc4C3)ccc21 -27.4%
CCOC(=O)C1CCCCN1S(=O)(=O)c1csc(C(N)=O)c1 (centres undefined) -24.1%
CCCCOc1ccc(CN2C(=O)C(=O)c3cc(Br)cc(C)c32)cc1OC -44.7%
CCOc1ccccc1CNC(=O)C1CCCN(c2ncnc3onc(-c4ccc(F)cc4)c23)C1 (centres undefined) -15.2%
Cc1ccc(CN2CCc3nc(N4CCN(c5ccccc5F)CC4)ncc3C2)cc1C -22.1%
Cc1cccc(C)c1-n1ncc(C(=O)Nc2ccc3c(c2)OCO3)c1C1CCN(C(=O)OC(C)(C)C)CC1 7.02%
COc1cccc(-c2cc(C(F)(F)F)nc(NCCc3ccccc3)n2)c1 -3.83%
COc1ccccc1CCNC(=O)c1ccc2c(c1)c(C)c(C)n2Cc1ccc(Cl)cc1 -19.8%
O=C(NCc1ccccc1Cl)C1CCCN(C(=O)c2cnn(-c3ccccc3)c2-n2cccc2)C1 (centres undefined) -35.8%
O=C(O)Cn1c(=O)n(Cc2ccc(Br)cc2F)c(=O)c2ccc(Cl)cc21 -3.86%
COc1ccc(-c2cc(=O)c3c(O)cc(O)cc3o2)cc1O 15.3%
Cc1ccc2c(c1)-c1nc(-c3ccc4c(c3)NC(=O)CO4)cc(-c3ccc(F)cc3)c1CO2 -4.22%
Cc1nc2c(C(=O)NCCc3ccc(Cl)cc3)c[nH]n2c(=O)c1Cc1ccc(Cl)cc1 -22.7%
O=C(CSc1nnc(-c2ccc(O)cc2)o1)c1ccc(Br)cc1 -0.86%
COc1ccccc1C(=O)Nc1c(C(=O)N(C)Cc2ccccc2)sc2nc(C)c(Cl)c(C)c12 -46.7%
Cc1cccc(-c2nc3c(c(SCc4ccccc4Cl)n2)Cc2c(CO)cnc(C)c2O3)c1 -15.2%
COc1cc(Cl)c(C)cc1NC(=O)c1cc2c(Cl)nc3ccc(C)cc3c2s1 -3.7%
CCOc1ccccc1NC(=O)c1c(NC(=O)C(C)Oc2ccc(Cl)cc2)sc2c1CCCCC2 (centres undefined) -40.8%
CCNC(=O)c1cnc2c(-c3ccccc3)c(C)nn2c1C -6.12%
CC(C)CC1N=C2c3ccccc3N=C(SCC(=O)NCCc3ccc(Cl)cc3)N2C1=O (centres undefined) 9.85%
CNC(=O)CN1C(=O)c2cccnc2Sc2ccccc21 -5.71%
CC(C)CCn1c(=O)c2sccc2n2c(CCCC(=O)NC(C)C)nnc12 -14.5%
COc1ccc(-c2nc3cc(C)ccn3c2NC(=O)c2ccc(C)c(C)c2)cc1 -9.03%
COc1ccc(-n2c(=O)c3c4c(sc3n(Cc3ccccc3Cl)c2=O)CCC4)c(OC)c1 1.48%
COc1cccc(CNC(=O)CN(C)S(=O)(=O)c2ccc3[nH]c4c(c3c2)CCCC4)c1 -20%
Cc1cccc(OCC(=O)Nc2ccccc2OCc2cc(=O)n3ccccc3n2)c1 3.54%
Cc1ccc(Cn2c(SCc3ccc(C(=O)N4CCCCCC4)cc3)nc3ccncc32)cc1 -45.7%
Cc1cccc(NC(=O)c2sc(-n3nc(C)c(Cc4ccc5c(c4)OCO5)c3C)nc2C)c1C -16.8%
COc1ccc(-c2cc(C)no2)cc1S(=O)(=O)NC(C)C -5.23%
COc1cccc(NC(=O)N2CCN3CCCCC3C2)c1 (centres undefined) 8.06%
COc1cc(OC)cc(N2C(=O)N(CC(=O)c3ccc(F)cc3)c3ccccc3S2(=O)=O)c1 -10.5%
COc1ccc(CN2CCc3nc(SCC(=O)Nc4cc(C)cc(C)c4)[nH]c(=O)c3C2)cc1 -3.24%
COc1ccc(-c2noc(Cn3c(=O)c4ccccc4n(CC(=O)Nc4cccc(OC)c4)c3=O)n2)cc1 -19.8%
COc1ccc(-c2noc(CSc3nnc(C)n3-c3ccc(OC)cc3)n2)cc1 -23.1%
Cn1nnnc1SCCCNCc1ccccc1OCc1ccccc1Cl -49.6%
Nc1nc(Cl)nc2c1ncn2[C@@H]1O[C@H](CO)[C@@H](O)[C@@H]1F -20.5%
COc1ccccc1NC(=O)c1sc2nc(N3CCOCC3)c3c(c2c1N)CC(C)(C)OC3 -1.08%
Cc1ccc(NC(=O)CSc2ncc3c(n2)-c2ccc(Cl)cc2N(C)S3(=O)=O)cc1F -13.2%
COc1ccc(-c2noc(-c3ccc(N4CCN(C)CC4)c([N+](=O)[O-])c3)n2)cc1OC 25.2%
Cc1ccccc1-c1nnc(CN2CCN(c3ccccn3)CC2)o1 8.58%
Cc1cc(Br)ccc1NC(=O)C1CCN(S(=O)(=O)c2cccc3nsnc23)CC1 -19.8%
COCCCNC(=O)C(=O)Nc1c2c(nn1-c1cccc(Cl)c1)CSC2 -16%
CNC(=O)Cn1cc(S(=O)(=O)Cc2ccccc2F)c2ccccc21 -11.1%
COC(=O)c1c(-c2cccs2)csc1NC(=O)COc1c(C)ccc(C)c1C -17.2%
CCCCCSc1nc2sc3c(c2c(=O)n1-c1ccccc1)CCN(C(C)=O)C3 -50.2%
Cc1nn(C(=O)c2ccccc2F)c(C)c1S(=O)(=O)N1CCCCCC1 -11.8%
COc1ccc(-c2oc3ncn4nc(COc5c(C)cccc5C)nc4c3c2-c2ccc(OC)cc2)cc1 10.1% [at 11.5 µM, percent change from vehicle, -100% = no light]
CCOc1ccccc1NC(=O)N1CCc2cc(S(=O)(=O)N3CCC(C)CC3)ccc21 -3.39%
Cc1ccc(N2C(=O)N(CC(=O)C(C)(C)C)c3ccccc3S2(=O)=O)cc1C -37.4%
CCc1cccc(NC(=O)c2cc3c(=O)n(Cc4ccc(OC)cc4)ccc3nc2C)c1 -13.9%
CCOc1ccc(CCNC(=O)c2ccc(Nc3nc4ccccc4n4nnnc34)cc2)cc1OCC -5.25%
CCOc1ccc(-c2cc(C(=O)N3CCN(S(=O)(=O)c4cc(Cl)ccc4OC)CC3)[nH]n2)cc1 -29.3%
Cc1ccc(C)c(N2CCN(C(=O)Cn3ncc4ccsc4c3=O)CC2)c1 -47.4%
CCOC(=O)c1ccc(NC(=O)c2c(N3CCCC3=O)c3cc(OC)ccc3n2C)cc1 -34.6%
Cc1cc2oc(C(=O)N(Cc3ccccc3F)C3CCS(=O)(=O)C3)c(C)c2cc1Cl (centres undefined) -21.7%
Cc1c(Cl)cccc1NC(=O)CN1C(=O)COc2ccc(S(=O)(=O)N3CCOCC3)cc21 -13.2%
CC1=C(C(=O)OCC2CCCCC2)C(c2cccc(Cl)c2Cl)CC(=O)N1 (centres undefined) -5.37%
Cc1ccc(C2CC(=O)Nc3cc4c(cc32)OCCO4)cc1 (centres undefined) -25.7%
CCc1ccc(Cn2c(CNS(=O)(=O)c3ccc(F)c(Cl)c3)nc3cccnc32)cc1 -23.6%
CCOc1ccc(C(=O)c2oc3ccccc3c2NC(=O)Cc2coc3cc(C)cc(C)c23)cc1 -22.5%
CC(=O)N1CCCC1c1nc2ccccc2n1Cc1ccccc1 (centres undefined) -3.53%
CCOC(=O)c1ccc(NC(=O)c2oc(=O)c3ccccc3c2-c2ccccc2)cc1 -21%
Cc1cccc(Cn2c(=O)n(CC3CCC(C(=O)N4CCOCC4)CC3)c(=O)c3sccc32)c1 (centres undefined) -26.9%
CCCCOC(=O)c1ccc(NC(=O)Cn2nnc3sc4c(c3c2=O)CCCC4)cc1 -32.6%
O=C(NCc1cccs1)c1ccc(Cn2c(SCc3cccc(F)c3)nc3cccnc32)cc1 -33.9%
COc1ccccc1-c1nc2c(c(SCC(=O)Nc3c(C)cc(C)cc3C)n1)Cc1c(CO)cnc(C)c1O2 -7.84%
CCC(=O)N1CCc2cc(S(=O)(=O)CCC(=O)NCc3ccc(C)cc3)ccc21 -11.1%
CCOC(=O)c1c(NC(=O)c2cc3nc(-c4ccc(OC)cc4)cc(C(F)(F)F)n3n2)sc2c1CCC(C)C2 (centres undefined) -3.71%
CCc1cccc(NC(=O)C(Cc2ccccc2)NS(=O)(=O)c2ccc3c(c2)oc(=O)n3C)c1 (centres undefined) -23.4%
COc1ccc(N2CCN(C(CNC(=O)C(=O)NCCc3ccccc3)c3cccnc3)CC2)cc1 (centres undefined) -32.9%
COc1ccc(C)cc1NC(=O)NCc1cccn1Cc1ccccc1 -8.92%
COc1ccccc1NC(=O)CN(C)S(=O)(=O)c1ccc2c(c1)c(=O)n(C)c(=O)n2C -13.3%
Cc1ccc(CN2CCC(CNC(=O)Nc3cccc(Cl)c3C)C2)cc1 (centres undefined) -18.3%
Cc1ccc(CCNC(=O)NCc2noc3ccccc23)cc1 -1.84%
COc1ccc(C)cc1NC(=O)CSc1nc2ccccc2nc1N1CCOCC1 -7.39%
CC1CCCN(S(=O)(=O)c2ccc3[nH]c(=O)cc(C(=O)NCCc4ccc(Cl)cc4)c3c2)C1 (centres undefined) -9.89%
Cc1c(CNC2CCCCCC2)c(C(=O)O)c(C)n1Cc1ccc(F)cc1Cl -18.4%
CCOCCCN(C(=O)Nc1ccc(Cl)cc1)C1CCN(C(C)=O)CC1 7.77%
O=C(COc1ccc(Cl)cc1)Nc1nnc2n1CCS2 -4.99%
O=C1CN2Cc3c(ccc(Cl)c3Cl)N=C2N1 -21.2%
CC(=O)N1CCc2cc(S(=O)(=O)NC(Cc3ccccc3)C(=O)Nc3cccc(C)c3)ccc21 (centres undefined) -16.5%

From PubChem BioAssay AID1508624 (National Center for Advancing Translational Sciences (NCATS), 2021)
